No constants are given. Whether binding was seen depends on the method and setting. Binding seen in cells or lysates may run through a third protein. Some entries that bind do so weakly or less than the wild type. Where a sequence is shown, tags or fusion partners need not be part of it.

By UniProt entry, the sequences of proteins in these tests, tags left out.
UniProt Q8TBH0: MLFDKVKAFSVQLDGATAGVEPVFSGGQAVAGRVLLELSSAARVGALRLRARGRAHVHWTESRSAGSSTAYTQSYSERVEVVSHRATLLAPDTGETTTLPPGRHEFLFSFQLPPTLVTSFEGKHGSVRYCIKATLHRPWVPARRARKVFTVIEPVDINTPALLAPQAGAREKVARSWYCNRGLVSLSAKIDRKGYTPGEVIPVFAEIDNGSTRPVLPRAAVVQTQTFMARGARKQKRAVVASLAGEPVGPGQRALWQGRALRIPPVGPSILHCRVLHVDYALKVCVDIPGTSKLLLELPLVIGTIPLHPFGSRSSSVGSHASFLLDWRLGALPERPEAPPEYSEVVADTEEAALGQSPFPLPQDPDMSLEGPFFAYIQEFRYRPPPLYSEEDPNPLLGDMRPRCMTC

Holding throughout (test): pull-down; HEK293TN cells co-transfected with the indicated plasmids; lysis in 0.5% Triton X-100, 150 mM NaCl, 50 mM Tris, pH 7.8; Strep/FLAG-tagged Txnip (or Arrdc1-4) held on magnetic Streptactin beads; wash with 0.5% Triton X-100, 500 mM NaCl, 50 mM Tris, pH 7.8; eluates by SDS-PAGE and immunoblot
Test [1] concerns the target T1, Arrestin domain-containing protein 3 (ARRDC3), N-terminal tandem Strep/FLAG tag (UniProt Q96B67).
T1 sequence: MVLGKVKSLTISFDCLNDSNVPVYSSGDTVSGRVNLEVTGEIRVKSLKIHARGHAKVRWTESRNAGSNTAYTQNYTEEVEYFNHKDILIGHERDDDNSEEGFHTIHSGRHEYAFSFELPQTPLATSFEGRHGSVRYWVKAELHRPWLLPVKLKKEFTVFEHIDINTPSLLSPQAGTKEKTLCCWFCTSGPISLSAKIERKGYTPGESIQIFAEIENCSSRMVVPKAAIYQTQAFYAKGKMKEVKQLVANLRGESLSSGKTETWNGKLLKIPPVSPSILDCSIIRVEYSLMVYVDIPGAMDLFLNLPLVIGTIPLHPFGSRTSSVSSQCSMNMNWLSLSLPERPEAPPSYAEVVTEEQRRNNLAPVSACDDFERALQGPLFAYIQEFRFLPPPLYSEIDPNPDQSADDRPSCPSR

The target of test [2] is T2, Thioredoxin-interacting protein (Txnip), N-terminal tandem Strep/FLAG tag (UniProt Q9H3M7).
T2 sequence: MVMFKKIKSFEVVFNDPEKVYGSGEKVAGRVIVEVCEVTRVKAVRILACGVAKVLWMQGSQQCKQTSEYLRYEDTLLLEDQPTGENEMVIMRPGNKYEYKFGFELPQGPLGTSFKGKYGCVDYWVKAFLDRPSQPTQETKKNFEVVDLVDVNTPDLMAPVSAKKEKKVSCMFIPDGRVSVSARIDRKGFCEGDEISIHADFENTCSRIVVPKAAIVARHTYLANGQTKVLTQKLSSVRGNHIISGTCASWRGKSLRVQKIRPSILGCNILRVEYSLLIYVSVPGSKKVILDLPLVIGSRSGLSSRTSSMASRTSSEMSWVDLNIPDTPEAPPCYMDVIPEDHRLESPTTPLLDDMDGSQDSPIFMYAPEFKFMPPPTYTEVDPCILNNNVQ

Test [3] has as its target T3, Arrestin domain-containing protein 1 (ARRDC1), N-terminal tandem Strep/FLAG tag (UniProt Q8N5I2).
T3 sequence: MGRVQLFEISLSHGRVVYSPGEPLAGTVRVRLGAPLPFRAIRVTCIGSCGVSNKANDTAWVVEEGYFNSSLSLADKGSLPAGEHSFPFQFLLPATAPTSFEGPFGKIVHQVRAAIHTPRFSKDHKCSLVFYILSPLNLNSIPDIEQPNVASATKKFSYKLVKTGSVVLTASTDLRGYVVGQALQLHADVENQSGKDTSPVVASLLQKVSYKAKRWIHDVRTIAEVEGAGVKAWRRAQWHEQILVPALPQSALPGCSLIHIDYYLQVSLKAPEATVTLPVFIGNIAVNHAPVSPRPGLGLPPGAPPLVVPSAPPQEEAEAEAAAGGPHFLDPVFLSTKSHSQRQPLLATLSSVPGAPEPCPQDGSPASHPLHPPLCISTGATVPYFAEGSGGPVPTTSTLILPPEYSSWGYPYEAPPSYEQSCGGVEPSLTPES

The target in test [4] is T4, Txnip C247S mutant, N-terminal tandem Strep/FLAG tag (UniProt Q9H3M7).
T4 sequence: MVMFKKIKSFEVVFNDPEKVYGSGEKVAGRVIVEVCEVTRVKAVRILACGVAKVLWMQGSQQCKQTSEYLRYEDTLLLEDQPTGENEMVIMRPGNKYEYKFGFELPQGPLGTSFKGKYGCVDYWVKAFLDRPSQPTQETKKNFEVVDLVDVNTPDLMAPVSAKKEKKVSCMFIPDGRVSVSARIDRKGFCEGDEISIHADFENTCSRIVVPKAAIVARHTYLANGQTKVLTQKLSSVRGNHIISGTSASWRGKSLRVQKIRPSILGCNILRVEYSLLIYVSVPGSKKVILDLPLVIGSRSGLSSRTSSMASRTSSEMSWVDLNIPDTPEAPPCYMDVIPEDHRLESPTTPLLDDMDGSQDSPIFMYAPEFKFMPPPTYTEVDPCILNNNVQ

For test [5], the target named is T5, Arrestin domain-containing protein 4 (ARRDC4), N-terminal tandem Strep/FLAG tag (UniProt Q8NCT1).
T5 sequence: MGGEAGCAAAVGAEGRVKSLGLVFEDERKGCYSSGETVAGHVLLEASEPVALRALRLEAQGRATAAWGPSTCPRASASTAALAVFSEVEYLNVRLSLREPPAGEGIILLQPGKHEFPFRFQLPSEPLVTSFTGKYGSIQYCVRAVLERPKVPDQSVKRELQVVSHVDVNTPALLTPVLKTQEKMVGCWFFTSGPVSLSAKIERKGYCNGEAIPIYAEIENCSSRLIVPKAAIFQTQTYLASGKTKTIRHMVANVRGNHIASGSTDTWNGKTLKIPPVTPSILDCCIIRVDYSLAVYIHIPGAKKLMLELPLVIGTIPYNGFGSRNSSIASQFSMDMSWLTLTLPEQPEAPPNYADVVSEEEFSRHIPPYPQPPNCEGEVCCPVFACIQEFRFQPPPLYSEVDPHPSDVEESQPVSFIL

Test [6] addresses Arrestin domain-containing protein 2 (ARRDC2), N-terminal tandem Strep/FLAG tag (UniProt Q8TBH0).

B1: full-length PDIA6 (1-421), HA tag (enzyme, UniProt Q15084 20-440)
chain: LYSSSDDVIELTPSNFNREVIQSDSLWLVEFYAPWCGHCQRLTPEWKKAATALKDVVKVGAVDADKHHSLGGQYGVQGFPTIKIFGSNKNRPEDYQGGRTGEAIVDAALSALRQLVKDRLGGRSGGYSSGKQGRSDSSSKKDVIELTDDSFDKNVLDSEDVWMVEFYAPWCGHCKNLEPEWAAAASEVKEQTKGKVKLAAVDATVNQVLASRYGIRGFPTIKIFQKGESPVDYDGGRTRSDIVSRALDLFSDNAPPPELLEIINEDIAKRTCEEHQLCVVAVLPHILDTGAAGRNSYLEVLLKLADKYKKKMWGWLWTEAGAQSELETALGIGGFGYPAMAAINARKMKFALLKGSFSEQGINEFLRELSFGRGSTAPVGGGAFPTIVEREPWDGRDGELPVEDDIDLSDVELDDLGKDEL
As to B1, the binding result was “no binding” in test [1]; “binds” in test [2]; “no binding” in test [3]; “no binding” in test [4]; “no binding” in test [5]; “no binding” in test [6].

These data come from publication PMC4203352.
